Data set [1] deals with the molecule itself. Nature of the data set: cryo-EM structure.
Data set [2] deals with the molecule itself. In words: cryo-EM structure. The source holds these as a separate data set.

B1: minimal functional rat TRPV1 ([…] and […]) (receptor)
chain: not shown
As to B1, the stoichiometry N (usually the number of molecules, sites or subunits per partner or assembly) in the data set “cryo-EM structure [1]” is 4.

B2: full-length rat TRPV1 ([…]) (receptor)
chain: not shown
On to B2, for which the binding result in the data set “cryo-EM structure [2]” is on record as “binds”.

For the origin of these results see paper PMC8488022 (Cell, 2021).
